Test results as given in PubChem BioAssay AID493208 (National Center for Advancing Translational Sciences (NCATS), 2011).
Among all 44,000 compounds or so, about 340 (0.77%) were called active. Roughly 5% stayed inconclusive and do not appear here. Calls follow the shape of the dose curve; as a rule, active = well fitted inhibition curve with a large enough effect; inconclusive = small, poorly fitted or top-dose-only effect; inactive = flat fitted curve, though single readings scatter. The list shows a part of the results.

test: Acumen qHTS Assay for Inhibitors of the mTORC1 Signaling Pathway in MEF (Tsc2-/-, p53-/-) Cells: Sytravon; settings: phospho-rpS6 immunofluorescence/PI, 24 h; series mostly up to 38.3 µM; activity change, negative = inhibition: at the top concentration; also: nearly all actives have a fitted effect of over 50% in size;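 as to activity change, negative = inhibition: plate controls were DMSO for no effect and rapamycin for full effect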
Method in brief: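 Tsc2-/-, p53-/- mouse embryonic fibroblasts (empty-vector line) exposed to compound 24 hrs at 37 C, fixed, immunostained for phospho-rpS6 and counterstained with propidium iodide. Acumen laser scanning gives % positive cells from Alexa 488/PI ratio, thresholded using 7.5 nM rapamycin; PI count gives viability.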
Potency is read from the fitted curve at half-maximal effect.

Activity change, negative = inhibition, inactive:
CCOC(=O)c1c(S(=O)(=O)NCC(=O)N(C)c2ccc(C)cc2)c(C)n(C)c1C -5.6%, Cc1ccccc1NS(=O)(=O)c1nnc(NC(=O)c2ccco2)s1 -3.66%, Cc1ccc(C)c(CN2C(=O)c3ccccc3S(=O)c3ccc(C(=O)NCCC4=CCCCC4)cc32)c1 (centres undefined) -0.655%, COc1ccc(CCC(=O)NCCc2csc(-c3cccc(C)c3)n2)cc1 0.175%, CCc1ccccc1N1C(=O)N(CC(=O)c2ccc(OC)cc2)c2ccccc2S1(=O)=O -7%, CCc1cccc(NC(=O)Cn2nc3c4cc(F)ccc4n(Cc4cccc(C)c4)cc-3c2=O)c1 -8.98%, COC(=O)CCN(C(=O)C1CCN(S(=O)(=O)c2c(C)noc2/C=C/c2ccccc2F)CC1)c1ccccc1 -0.821%, CC(C)Oc1ccc(C(=O)Nc2nonc2-c2ccc(OC(C)C)cc2)cc1 -0.581%, CCCNC(=O)c1cnc2c(-c3ccc(OCC)c(OCC)c3)c(C)nn2c1-c1ccccc1 -6.63%, CCOC(=O)c1cc(C)n(CC2CCC(C(=O)Nc3cc(OC)cc(OC)c3)CC2)c1C (centres undefined) -3.48%, COc1cc(NC(=O)CC(c2cccs2)N2Cc3ccccc3C2=O)cc(OC)c1OC (centres undefined) 0.269%, CCN(CCCNC(=O)Cn1ncc2c([nH]c3ccc(C)cc32)c1=O)Cc1ccccc1 -2.52%, COc1ccc(NC(=O)C(=O)NCc2ccco2)cc1 4.91%, COc1cccc(CN(C(=O)c2cccc(C)c2)C2CCS(=O)(=O)C2)c1 (centres undefined) -6.91%, CC(=O)c1ccc(NC(=O)Cn2nc(C(F)(F)F)c3c2CCCC3)cc1 1.72%, COc1ccc(OC)c(-c2noc(N3CCN(c4cccc(C)c4C)CC3)n2)c1 -18%, CCSc1nn(CC(=O)Nc2cccc(Cl)c2)c(N)c1S(=O)(=O)c1ccc(OC)cc1 -6.48%, CCc1ccc(NC(=O)Cn2c(=O)n(-c3cc(C)cc(C)c3)c(=O)c3oc4ccccc4c32)cc1 0.835%, COc1ccc(-c2nc(SCC(=O)Nc3ccc4c(c3)OCCO4)c(-c3ccccc3)[nH]2)cc1 -18.7%, Cc1ccc(CSc2oc(-c3cccs3)nc2S(=O)(=O)c2ccc(C)cc2)cc1 0%, COC(=O)CC1Oc2ccc(C)cc2-n2cc(-c3ccc(C)cc3)nc21 (centres undefined) 2.56%, COC(=O)c1ccccc1NC(=O)C1=C(C)C(=O)OC12CCC(C)CC2 (centres undefined) -14%, Cc1ccc2oc(C(=O)Nc3sc4c(c3C(=O)NCc3cccnc3)CCCC4)cc(=O)c2c1 4.25%, Cc1ccc(-n2nc3c(=O)n(CCCC(=O)NC(C)c4ccccc4)nc(C)c3c2C)cc1 (centres undefined) -4.25%, CCOC(=O)/C(C#N)=C/c1ccc(-c2ccc(C)cc2)o1 6.92%, CC(C)CC(=O)Nc1nnc(S(=O)(=O)N2CCc3ccccc32)s1 9.21%, COc1ccccc1Cn1cc(C(=O)c2ccc(C)cc2)c(=O)c2cc(F)cc(F)c21 -13.6%, CCCN(CCC)C(=O)Cn1c(=O)n(Cc2ccc(C(=O)NCCc3ccc(Cl)cc3)cc2)c(=O)c2ccccc21 7.2%, COc1ccccc1NS(=O)(=O)c1cc2c(cc1Cl)NC(=O)CO2 5.75%, CCOc1ccc(CCNC(=O)CSc2cc(=O)n(C)c3ccc(Cl)cc23)cc1OCC -1.3%, CCCc1cnc2c(c1SCc1ccc(C(F)(F)F)cc1)c(=O)n(C)c(=O)n2C 0.477%, CC(C)Oc1ccc(CNC(=O)c2ccc(Cn3c(=O)c4cccn4c4cccnc43)cc2)cc1 4.44%, Cc1ccc(NC(=O)CSc2ccc(-c3sc(-c4ccccc4)nc3C)nn2)cc1F -0.111%, Cc1cccc(N2CCN(C(=O)CCSCc3ccccc3F)CC2)c1C 5.49%, COc1ccccc1N1CCN(C(=O)Cn2ncc3c(=O)oc4ccc(C)cc4c32)CC1 0.682%, CC(=O)c1ccc(NC(=O)Cn2c(=O)n(Cc3ccco3)c(=O)c3sc4ccccc4c32)cc1 -8.22%, Cc1cccc(CNC(=O)c2cnc3sc(N4CCCCCC4)nn3c2=O)c1 -2.83%, COc1ccc(-c2nsc(NC(=O)c3oc4cc(C)c(C)cc4c3C)n2)cc1 -2.81%, Cc1ccc(N(Cc2cccs2)C(=O)COc2cccc(C)c2)cc1 1.69%, COc1ccc(C2=NC(C)(C)N(CC(=O)Nc3ccc(F)c(F)c3)C2=O)cc1 1.46%, Cc1nn2c(=O)cc(COC(=O)CNC(=O)c3ccc(F)cc3)nc2s1 -6.97%, Cc1ccc(-n2ncc(C(=O)NCCCN3CCCCC3)c2C2CCN(C(=O)OC(C)(C)C)CC2)cc1 -28.6%, COc1cccc(OC)c1C(=O)Nc1ccc(S(=O)(=O)Nc2nccc(C)n2)cc1 -2.76%, Cc1ccc(NC(=O)c2c(C)nc3sc(C(=O)Nc4ccc(F)cc4)c(N)c3c2-c2ccccc2Cl)c(C)c1 -12.3%, CCOC(=O)c1c(C)n(-c2ccccc2)c2ccc(OC(=O)c3ccccc3NC(=O)C(C)(C)C)cc12 -1.78%, O=C(O)c1cc(-c2ccc(C(F)(F)F)cc2)nc2n[nH]c(-c3ccccc3)c12 0%, CC(=O)c1ccc(NC(=O)Cn2cc3c(n2)CCCC3)cc1 0.772%, CCc1ccc(S(=O)(=O)c2cn(CC)c3cc(N4CCOCC4)c(F)cc3c2=O)cc1 -5.63%, CCOc1ccc(CN2CCN(c3ncnc4sc5c(c34)CC(C)CC5)CC2)cc1 (centres undefined) -8.31%, COc1ccccc1C(=O)Nc1nnc(S(=O)(=O)N(C)c2ccc(Cl)cc2)s1 -11.4%, CCOc1ccc2c(c1)c(=O)c(S(=O)(=O)c1ccccc1)cn2CC(=O)Nc1ccccc1OC 2.97%, Cc1ccc(CNC(=O)C2CCN(S(=O)(=O)c3ccc4c(c3)CCCN4C(=O)C3CCC3)CC2)cc1 -0.552%, O=C(NCCSc1c(-c2ccccc2)[nH]c2ccccc12)c1ccc(S(=O)(=O)N2CCOCC2)cc1 -16.8%, Cc1nc(-c2ccccc2)sc1CCNS(=O)(=O)c1ccccc1 -0.701%, COc1ccc(NC(=O)CN2C(=O)CSc3ccc(S(=O)(=O)N4CCCC4)cc32)cc1OC 2.66%, CCOc1ccc(S(=O)(=O)N(CC(=O)NCCc2ccc(OC)c(OC)c2)c2ccccc2)cc1 -17.6%, Cc1ccccc1NC(=O)CN1C(=O)C(C)(C)c2ccccc21 -2.42%, COc1cccc(NC(=O)c2cc3c(=O)n(C)c4ccccc4c3n2C)c1 -5.96%, CCCCNC(=O)c1cnn2c(C)c(Cc3c(F)cccc3Cl)c(C)nc12 -15.7%, COc1ccc(OC)c(CCNC(=O)c2c(C)oc3ncn(C)c(=O)c23)c1 -5.9%, O=C(CN1C(=O)COc2ccc(S(=O)(=O)N3CCCCCC3)cc21)N1CCN(c2ccc(Cl)cc2)CC1 -10.7%, CCOC(=O)c1ccc(NC(=O)CC(C)n2nc(C)cc2C)cc1 (centres undefined) -11.1%, COc1cc(NC(=O)Cc2noc3ccccc23)cc(OC)c1OC -0.488%, O=c1[nH]c(C2CCCN(S(=O)(=O)c3ccccc3)C2)nc2c1nnn2Cc1ccccc1Br (centres undefined) -1.67%, CCOC(=O)c1cccc(NC(=O)Nc2c(C)n(C)n(-c3ccccc3)c2=O)c1 2.78%, Cc1cccc(-n2ncc3c(NNC(=O)c4ccccc4Cl)ncnc32)c1 2.4%, COc1ccc(-c2ccc(=O)n(CC(=O)Nc3cc(OC)ccc3OC)n2)cc1 -1.55%, Cc1ccc(C)c(Nc2nn3c(=O)c4ccc(C(=O)NCc5ccccc5)cc4nc3s2)c1 -1.23%, COc1ccc(CNC(=O)c2cc(-c3ccc(Br)s3)nc3ccccc23)cc1 -6.82%, COc1cccc(C(=O)Nc2nnc(S(=O)(=O)N3CCCc4ccccc43)s2)c1 8.71%, Cc1cccc(C)c1NC(=O)Cn1cc(C(=O)C2CC2)c2ccccc21 -5.66%, Cc1nn(CCC(=O)Nc2cccc(C#N)c2)c(C)c1S(=O)(=O)N1CCCCC1 14.6%, CCCCN(CC)CCCNC(=O)c1cn(C)c(=O)c2c1c1ccccc1n2C -1.91%, CCc1cnc2c(c1SCc1cc(OC)cc(OC)c1)c(=O)n(C)c(=O)n2C 0.477%, COc1ccc(OC)c(S(=O)(=O)NCCS(=O)(=O)N2CCN(c3ccccc3F)CC2)c1 0%, CCS(=O)(=O)NCCc1csc2nc(-c3ccc(OC)cc3)nn12 -8.92%, Cc1ccc(C)c(CN2C(=O)c3ccccc3S(=O)c3ccc(C(=O)N4CCCCC4)cc32)c1 (centres undefined) -4.49%, COc1ccccc1/C=C/C(=O)Nc1nc2n(n1)C(c1ccc(F)cc1)C=C(c1ccccc1)N2 (centres undefined) -1.81%, Cc1ccc(OCCn2c(C3CC(=O)N(Cc4ccc(F)cc4)C3)nc3ccccc32)c(C)c1 (centres undefined) -5.23%, CSc1ncc(C(=O)NCc2cccc(C)c2)c(-c2ccccc2)n1 1.62%, C=CCc1ccccc1OCCSc1nc(-c2ccccc2F)nc2cc(=O)[nH]n12 -0.243%, O=S(=O)(NCC(c1ccccc1)N1CCc2ccccc21)c1ccc(Cl)cc1 (centres undefined) 0.221%, COc1ccc(C(=O)c2cn(Cc3ccccc3OC)c3cc4c(cc3c2=O)OCO4)cc1 2.47%, COC(=O)c1ccc(NC(=O)CC2C(=O)N(c3ccccc3)C(=O)N2Cc2cccs2)cc1 (centres undefined) -7.92%, CCN(CC)C(=O)c1sc2c(c1C)c(=O)n(-c1ccc(OC)cc1OC)c(=O)n2CC(=O)Nc1ccccc1 0.382%, Cc1cccc(N2CCN(c3nc4ccccc4c4nnc(C)n34)CC2)c1C -7.2%, COc1ccc(CNC(=O)Cn2cccc2C(=O)c2ccccc2C)cc1 -3.16%, Cc1cccc(NC(=O)c2c(NC(=O)c3ccccc3)sc3c2CCC3)c1 3%, Cc1cc(C)cc(-n2ccnc2SCC(=O)Nc2ccccc2F)c1 -3.54%, COc1ccc2c(c1)c(CC(=O)Nc1c(C)cccc1C)c(C)n2C(=O)c1ccc(Cl)cc1 -4.62%, CSc1ccc(CCNC(=O)c2ccc(-n3c(C)cc4c3CCC(C)C4)cc2)cc1 (centres undefined) -1.5%, CCOc1ccccc1NC(=O)Cn1c(=O)n(-c2ccc(C)cc2)c(=O)c2c1cnn2C -13.5%

Potency, active:
CCN1CCN(c2cc(C)c3cc(NC(=O)c4cc(Cl)ccc4OC)ccc3n2)CC1 2.61 µM, Cc1ccccc1Cn1c(CN2CCC(C(=O)NCCN(C)C)CC2)cc2ccccc21 7.36 µM
